Data reported in the RNAGym collection of RNA variant scans (doi:10.7554/elife.90254).
Read counts are not given, so values of variants with three or more changes are uncertain.

B1: LINE1-mini (parent)
chain: GGCAGAGCUCAACACAGCGUGGCAAAGUGGCUGUGGCUAGACUGCC

Variants of: B1
Assay: self-cleavage, relative activity (ratio to wild type); higher = more cleavage; in vitro, sequencing; the parent is a self-cleaving ribozyme

| Variant | self-cleavage |
| --- | --- |
| GGCAGAGAUCAACACAGGGUGGCAAAGUGGCUGUGCCUAGACUGCC [C8A C18G G36C] | 0.23 |
| GGCAGAGAUUAACACAGCCUGGCAAAGUGGCUGUGGCUAGACUCCC [C8A C10U G19C G44C] | 0.03 |
| GGCAGAGAUCAACACAGCCUGGCAAAGUAGCUGUGGCUAGACUGCC [C8A G19C G29A] | 0.17 |
| GGCAGAGAUCAACACAGCGUUGCAAAGUAGCUGUGCCUAGACUGCC [C8A G21U G29A G36C] | 0.16 |
| GGCAGAGAUCAACACAGUGUGGCAAAGUGACUGUGGCUAGACUGCC [C8A C18U G30A] | 0.1 |
| GGCAGAGAUCAACACAGCGUGACGUAUUGGCUGUGGCUAGACUGCC [C8A G22A A24G A25U G27U] | 0.13 |
| GGCAGAGAUCAACAAAGCGUAGCAAAGUGGCUGUGGCUAGACCGCC [C8A C15A G21A U43C] | 0.56 |
| GGCAGAGAUCAACAAACCGUGGCGAAGUGGAUGUGGCUACACUGCC [C8A C15A G17C A24G C31A G40C] | 0.01 |
| GGCAGAGAUCAACACAGCGUGGCAAGGUGGCUGUGGCUGGACUGCC [C8A A26G A39G] | 0.03 |
| GGCAGAGAUCAACACAGCGUGGCAAGGUGGCUGUGGCUUGACUGCC [C8A A26G A39U] | 0.06 |
| GGCAGAGAUGAUCACAGCGUGGCAAAGUGGCUGUGGCUAGACUGCC [C8A C10G A12U] | 0.02 |
| GGCAGAGAUCAACACAAGGUGGCAAAGUGGCUGUGGCUAGUCUGCC [C8A G17A C18G A41U] | 0.14 |
| GGCAGAGAUCAACACAUUGUGGCAAAGUGGCUGUGGCUAGUGUGCC [C8A G17U C18U A41U C42G] | 0.1 |
| GGCAGAGAUCAACACAGCGUGGUAAAGUGGCUGUGACUAGACUGCC [C8A C23U G36A] | 0.45 |
| GGCAGAGAUCAACACAGCGUGGCAAAUUGGCCGUGGUUAGACUGCC [C8A G27U U32C C37U] | 0.01 |
| GGCAGAGAUCAACACAGCGUGGAAAAGUGGCUGUGGCAAGACUGCC [C8A C23A U38A] | 0.1 |
| GGCAGAGAUCAACAUCGCGUGGCAAAGUGACUGCGGCUUGAUUGCC [C8A C15U A16C G30A U34C A39U C42U] | 0.09 |
| GGCAGAGAUCAACACAGCGUGGGAAAGUGGCUGUGGCUAGAUUGCC [C8A C23G C42U] | 0.16 |
| GGCAGAGAUAAACACAGCGUGGCAAUGUGGCUGUGGCUAAACUGCC [C8A C10A A26U G40A] | 0.01 |

| Variant | self-cleavage |
| --- | --- |
| GGCAGAGAUCAACACAGCGUGGUAAUGUGGCUGUGGAUAGACUGCC [C8A C23U A26U C37A] | 0 |
| GGCAGAGAUAAACACAGCGUGGCAAAGUGGCGGUGGCUAGACUGCC [C8A C10A U32G] | 0.02 |
| GGCAGAGAUCAACACAGCGUGGCCAAGUGGCUGUGGCUAGACUGCA [C8A A24C C46A] | 0.34 |
| GGCAGAGAUCAACACAGCGUGGUAAAGUGGCUGUGGCUACACUGCC [C8A C23U G40C] | 0.29 |
| GGCAGAGAUCAACACAGCGUGGCAAAGUGGCUGUGGCUAGAUUUCC [C8A C42U G44U] | 0.02 |
| GGCAGAGAUCAACAGAGCGUGGCAAAGUGGCUGUCGCUAGGCUGCC [C8A C15G G35C A41G] | 0.16 |
| GGCAGAGAUCAACACAGCGUGGCAAUGUGGCAGUGGCUAGACUGGC [C8A A26U U32A C45G] | 0.2 |
| GGCAGAGAUCAACACAGGGUGUCAAAGUGGCUGUGGCUAGACUGAC [C8A C18G G22U C45A] | 0.03 |
| GGCAGAGAUGAACACAGCGUGGCAAAGUAGCUGUGGCUAGACUGCU [C8A C10G G29A C46U] | 0.01 |
| GGCAGAGAUCAACACAGCGUGGCAAAGUGGUUGUGGCUAGACUGCA [C8A C31U C46A] | 0.2 |
| GGCAGAGAUCAACACAGCGUGGCAUAGUGGCUGUGGCUAGGCUGCC [C8A A25U A41G] | 0.15 |
| GGCAGAGAUCAACACAACGUGGCAAAGUGGCUGUGGCUUGACUGCC [C8A G17A A39U] | 0.15 |
| GGCAGAGAUGAACAGAGCGUGGCAAAGUGGCUGUGGCUAGACUGCC [C8A C10G C15G] | 0.03 |
| GGCAGAGAUCAACAUAGCGUGGCACAGUGGCUGUGGCUAUACUGCC [C8A C15U A25C G40U] | 0.15 |
| GGCAGAGAUCAACACAGCGUGACAAAGAGGCUGUGGCUAGACUGCG [C8A G22A U28A C46G] | 0.23 |
| GGCAGAGAUCAACACAGCGUAGCAAAGUGGCUUUGGCUACACUGCC [C8A G21A G33U G40C] | 0.22 |
| GGCAGAGAUCAACACAGCGUGGCAACGGGGCCGUGGCUAGACUGCC [C8A A26C U28G U32C] | 0.09 |
| GGCAGAGAUCAACACAGCUCGGCAAAGUGAAUGUGGCUAGACUGCC [C8A G19U U20C G30A C31A] | 0.24 |
| GGCAGAGAUCAACAAAGCGUGGCAAAGUGGCUGUGGGUAGACUGCC [C8A C15A C37G] | 0.33 |

| Variant | self-cleavage |
| --- | --- |
| GGCAGAGAUUUACACAGCGUGGCAAAGUGGCUGUGGCUAGACUGCU [C8A C10U A11U C46U] | 0.03 |
| GGCAGAGAUCAACACAGCAUGGUAAAGUGUCUGAGGCUAGGCUGCC [C8A G19A C23U G30U U34A A41G] | 0.1 |
| GGCAGAGAUCAACAUAGCGUGGCAAAUUGGCUAUGGCUCGACUGCC [C8A C15U G27U G33A A39C] | 1 |
| GGCAGAGAUCAACACAGUGUGGCAAAGUGGUUGUGGCUAGACUGCC [C8A C18U C31U] | 0.06 |
| GGCAGAGAUCAACACAGCGUGGCAUAGUGGCUUUGGCUAGACGGCC [C8A A25U G33U U43G] | 0 |
| GGCAGAGAUCAAUACGGCGUGGCAAAGUGGCUGUGGCUAGACUGCC [C8A C13U A16G] | 0.11 |
| GGCAGAGAUCAAAACGGCGGGGCAAAGUGGCUGUAGCUAGACUGCC [C8A C13A A16G U20G G35A] | 0.05 |
| GGCAGAGAUGAACAAAGCGUGGCAAAGUGGCUGUGGUUAGGCUGCC [C8A C10G C15A C37U A41G] | 0.01 |
| GGCAGAGAUCAAUAAAGCGUGGCAAAGUCGCUGUGGUUAGACUGCC [C8A C13U C15A G29C C37U] | 0.35 |
| GGCAGAGAUCAACACAGCGUGUCAAAGUGGCUGUGGCAAGACUGCC [C8A G22U U38A] | 0.09 |
| GGCAGAGAUCAACACAGCGUGGCAAAUUGGCAGUGGCUAUACUGCG [C8A G27U U32A G40U C46G] | 0.09 |
| GGCAGAGAUGAACACAGCGUGGCAAAGAGGCUGUGGCUAGACUGCA [C8A C10G U28A C46A] | 0.03 |
| GGCAGAGAUCAACACAGCGUGGCAACGUGUCCGUGGCUAUACUGCC [C8A A26C G30U U32C G40U] | 0.11 |
| GGCAGAGAUAAACACAGCGUGGCUAAGUGGCUGUGGCUAGACUGCC [C8A C10A A24U] | 0.01 |
| GGCAGAGAUAAACACAGCGUGGCAAAGAGACUGUGGCUAGACUGCA [C8A C10A U28A G30A C46A] | 0.01 |
| GGCAGAGAUCAACACAGCGUGGCGAAGUGGCUGUGGCUAGAGUGCC [C8A A24G C42G] | 0.2 |
| GGCAGAGAUCAACACAGCGUGGGAAAGUGGUUAGGGUUAGACUGCC [C8A C23G C31U G33A U34G C37U] | 0.11 |
| GGCAGAGAUCAACACAGCGUGGCAAACUGGUUCUGGCUUGACUGCC [C8A G27C C31U G33C A39U] | 0.03 |
